From PubChem BioAssay AID652104 (National Center for Advancing Translational Sciences (NCATS), 2013)
The campaign covered roughly 410,000 compounds. About 7,200 (1.8%) were called active. Inconclusive means that the source gave no clear call. Such entries were picked first, then a sample of the others. The call rests on the fitted dose curve; in most records, active means well fitted activation curve with a large enough effect; inconclusive means small, poorly fitted or top-dose-only effect, or another doubt; inactive means no such curve, though single readings can be large or run the other way. No potency is given beside an inconclusive call; the fits are too rough.
Potency means the concentration at half of the fitted maximal effect; tags describe the fitted curve by direction and shape.

Assay: qHTS of TDP-43 Inhibitors; further: nearly all actives have a fitted effect of over 50% in size; on growth rescue (activation): % of control where 0% means no effect
Conditions: TDP-43 expressing yeast growth rescue, BacTiter-Glo, 24 h; growth rescue (activation): at 46.1 µM (top of the series) unless noted
Outline: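 Cell-based yeast growth screen: TDP-43 expression induced in galactose, inoculum OD600=0.02 after raffinose pregrowth to mid-log. Read-out BacTiter-Glo luminescence at 24 hr, 30 deg C; inhibition of toxicity seen as signal increase.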
For `O=S(=O)(NCCSCc1c(Cl)cccc1Cl)c1ccc2c(c1)OCCO2`, the Potency was active: 35.5 µM. With `c1ccc(-c2cc(-c3nc4ccccc4[nH]3)c3ccccc3n2)cc1` the Potency was active: 15.8 µM. For `COCCN(C(=O)c1ccccc1)c1nnc(-c2cccnc2)s1`, the Potency was inconclusive [activator, partial curve]. For `COc1ccc(-c2cc(C(=O)N3CC4(C)CC3CC(C)(C)C4)no2)cc1OC` (stereo unspecified), the growth rescue (activation) was inconclusive: 40.1% [activator]. For `CCc1c(C)nc2nncn2c1Nc1ccc(C)c(F)c1`, the Potency was inconclusive [activator, partial curve]. For `Cc1cc(-c2ccc(C)c(S(=O)(=O)NCc3ccc(Cl)cc3)c2)on1`, the Potency was active: 31.6 µM. With `Cc1csc(SCC(=O)Nc2ccc(C)c(S(=O)(=O)N(C)C)c2)n1` the Potency was inconclusive [activator, partial curve, poor fit]. In the case of `O=C(Nc1cc(C(F)(F)F)ccc1Cl)c1ccncc1`, the Potency is reported as inconclusive [activator, partial curve]. In the case of `O=C(CSc1ccc2ccccc2c1)Nc1ccncc1`, the Potency is reported as “inactive”. With `COc1cc(/C=C(\C#N)C(=O)NCc2cccs2)ccc1O` the Potency was inconclusive [activator, single point]. For `COc1ccc(OC)c(/C=C/C(=O)c2ccc3c(c2)OCCO3)c1`, the Potency was active: 11.2 µM. In the case of `O=C(CCl)N1c2ccccc2Sc2c1ccc1ccccc21`, the Potency is reported as inconclusive [activator, single point]. In the case of `CCN1C(=O)c2ccccc2Sc2ccc(NC(=O)c3ccc(C)c(F)c3)cc21`, the Potency is reported as “inactive”. With `O=C(c1ccc(S(=O)(=O)N2CCCCCC2)cc1)N(c1ccccn1)C1CCCCC1` the Potency was inconclusive [activator, single point]. For `CSCCC(NC(=O)/C(=C/c1ccc2c(c1)OCO2)NC(=O)c1cccc([N+](=O)[O-])c1)C(=O)O` (stereo unspecified), the Potency was “inactive”. In the case of `Cc1ccc2oc(=O)n(CCNC(=O)Nc3ccccc3Cl)c2c1`, the Potency is reported as “inactive”. In the case of `COc1ccc(NC(=O)CN2C(=O)C3CC=CCC3C2=O)cc1Cl` (stereo unspecified), the Potency is reported as inconclusive [activator, full curve, poor fit]. For `COc1cc2c(cc1[N+](=O)[O-])n(C(C)C)c(=O)n2C(C)C`, the Potency was “inactive”. For `Cc1cc(C)c2c(=O)cc(C(=O)Nc3ccccc3Cl)oc2c1`, the Potency was inconclusive [activator, partial curve, poor fit]. With `COc1ccc(N(CC(=O)NCc2ccco2)C(=O)CCC(=O)Nc2ccccn2)cc1` the Potency was inconclusive [activator, single point]. With `CCc1cccc(CC)c1NC(=O)C1CC(=O)N(c2ccc3c(c2)OCCO3)C1` (stereo unspecified) the Potency was inconclusive [activator, single point]. With `CCOC(=O)C(C)Oc1ccc2c(-c3cccc([N+](=O)[O-])c3)cc(=O)oc2c1` (stereo unspecified) the Potency was inconclusive [activator, single point]. With `Cc1ccc(NC(=O)NCCCN2CCCC2=O)c(C)c1` the Potency was “inactive”. With `Cc1cc(=O)[nH]c(-n2nc(C)cc2C)n1` the Potency was inconclusive [activator, single point]. With `CCc1nn(CCCC(=O)NC2CCCCC2C)c(=O)c2cc3occc3n12` (stereo unspecified) the Potency was active: 22.4 µM. In the case of `COc1cc(OC)cc(C(=O)Nc2ccc3nc(N4CCC(C)CC4)cc(C)c3c2)c1`, the Potency is reported as “inactive”. For `O=C(CCNc1ccc(Cl)c(C(F)(F)F)c1)c1ccco1`, the Potency was inconclusive [activator, single point]. With `O=C(/C=C/CCc1ccc2c(c1)OCO2)N1CCCCC1` the Potency was inconclusive [activator, partial curve]. With `Cn1cnc([N+](=O)[O-])c1S(=O)(=O)c1cccc(Cl)c1` the Potency was active: 12.6 µM. With `Cc1nnc2ccc(Oc3ccc(-c4ccccc4)cc3)nn12` the Potency was inconclusive [activator, single point]. In the case of `Cc1cccc(NC(=O)CSc2nc3c(oc4ccccc43)c(=O)n2C(C)C)c1`, the Potency is reported as inconclusive [activator, partial curve, poor fit]. In the case of `CC1=C(C(=O)NCCc2ccc(Cl)cc2)C2(CCCCC2)OC1=O`, the Potency is reported as “inactive”. In the case of `CC1=NN(C(=O)c2ccc(Cn3nc(C)c([N+](=O)[O-])c3C)o2)C(O)(C(F)(F)F)C1` (stereo unspecified), the Potency is reported as “inactive”. In the case of `O=C(O)c1cccc(NC(=O)c2cn(-c3ccccc3)nc2-c2cccc(Br)c2)c1`, the Potency is reported as inconclusive [activator, single point]. For `O=Cc1c(Sc2ccccn2)nc2ccccn2c1=O`, the Potency was “inactive”. With `Brc1csc(/C=N/Nc2nc3ccccc3s2)c1` the Potency was inconclusive [activator, partial curve]. In the case of `COc1ccc(NC(=O)c2cnc(SC)n2-c2ccc(F)cc2)c(OC)c1`, the Potency is reported as inconclusive [activator, partial curve]. For `COc1cc2c(cc1NC(=O)c1cccc(F)c1)CCCC2`, the Potency was inconclusive [activator, partial curve]. With `Cc1cc(OCc2cc(C(=O)NC(C)c3cnn(C)c3)no2)cc(C)c1Cl` (stereo unspecified) the Potency was active: 31.6 µM. For `COc1ccc(Cl)cc1NC(=S)NCCc1ccc(F)cc1`, the Potency was active: 31.6 µM. In the case of `COc1cc(-c2noc(-c3ccc(NCCc4ccccc4)c([N+](=O)[O-])c3)n2)cc(OC)c1OC`, the Potency is reported as “inactive”. In the case of `COc1ccc2c(c1)OC[C@H]1[C@H]2N2C(=O)c3cc(F)ccc3NC(=O)[C@@]2(C)[C@H]1c1ccccc1`, the Potency is reported as active: 20 µM. With `COc1cc(SC)ccc1C(=O)Nc1ccon1` the Potency was inconclusive [activator, partial curve]. For `COc1cc(C(=O)N/N=C/c2coc3ccccc3c2=O)cc(OC)c1OC`, the Potency was inconclusive [activator, single point]. In the case of `CC(NC(=O)Cn1cccc1C(=O)c1ccccc1)c1ccccc1` (stereo unspecified), the Potency is reported as inconclusive [activator, partial curve]. With `CC(NS(=O)(=O)OCC(Cl)(Cl)Cl)c1ccc(C(C)(C)C)cc1` (stereo unspecified) the Potency was “inactive”. In the case of `COc1ccc(Cl)cc1NC(=O)C1CC(c2c(F)cccc2Cl)=NO1` (stereo unspecified), the Potency is reported as inconclusive [activator, single point]. In the case of `O=C(Nc1cc([N+](=O)[O-])ccc1Cl)C1CC1`, the Potency is reported as inconclusive [activator, partial curve, poor fit]. With `CC1(C)Cc2c(sc3ncnc(NNC(=S)NCc4ccccc4)c23)CO1` the Potency was inconclusive [activator, full curve]. For `CC(=O)N/N=C\c1cccc(OC/C=C/c2ccccc2)c1`, the Potency was inconclusive [activator, partial curve]. For `CCN(CC)CCC=C(c1cccs1)c1cccs1`, the Potency was inconclusive [activator, single point]. In the case of `CC1CC(C)CN(C(=O)COc2ccc([N+](=O)[O-])cc2Cl)C1` (stereo unspecified), the Potency is reported as inconclusive [activator, single point]. With `Cc1nn(-c2nnc(NCc3ccccc3)nn2)c(C)c1Br` the Potency was inconclusive [activator, single point]. For `CCN(CC)CCSc1nc2ccccc2c(=S)n1-c1ccccc1`, the Potency was inconclusive [activator, partial curve]. With `CCOc1ccccc1NC(=O)c1nn(C)c2c1CSc1ccccc1-2` the Potency was inconclusive [activator, full curve, poor fit]. For `O=C(Nc1ccccc1N1CCOCC1)c1ccc(N2CCCC2=O)cc1`, the Potency was inconclusive [activator, partial curve, poor fit]. In the case of `CCOc1ccc(-c2csc(-c3c(N)c(C(=O)c4ccc5c(c4)OCO5)n4ccccc34)n2)cc1`, the Potency is reported as “inactive”. With `O=C(Nc1ccccc1)O/N=C/c1ccc(F)cc1` the Potency was active: 10 µM. For `Cc1cccc(NC(=O)c2oc3ccc(S(=O)(=O)N4CCC5(CC4)OCCO5)cc3c2C)c1C`, the Potency was “inactive”. With `COc1ccc([N+](=O)[O-])c(S(=O)(=O)c2ccccc2)n1` the Potency was inconclusive [activator, single point]. In the case of `CCN(C(=O)Cc1ccc(Br)cc1)C1CCCCC1`, the Potency is reported as inconclusive [activator, partial curve]. With `C=CCn1c(N)c(C(=O)Nc2cccc(C)c2)c2nc3ccccc3nc21` the Potency was active: 25.1 µM. In the case of `Cc1cccn2c(=O)nc(SCC(=O)N3CCC(Cc4ccccc4)CC3)nc12`, the Potency is reported as inconclusive [activator, single point]. With `CN1C(=O)C2(OCC(COc3ccc(Cl)cc3)O2)c2ccccc21` (stereo unspecified) the Potency was inconclusive [activator, single point]. For `C[C@H](NC(N)=O)C(=O)Nc1ccc(N2CCOCC2)c(S(=O)(=O)Nc2ccc(Cl)cc2)c1`, the Potency was “inactive”. For `C=CCn1c(Sc2ncc([N+](=O)[O-])s2)n[nH]c1=O`, the Potency was active: 12.6 µM. With `C=CCCC(=O)Nc1nc(C)c(-c2csc(Nc3cc(Cl)ccc3OC)n2)s1` the Potency was inconclusive [activator, partial curve]. For `CN(C)CCNCCCNc1c2ccccc2nc2cccc([N+](=O)[O-])c12`, the Potency was inconclusive [activator, partial curve]. For `Cc1ccccc1C(=O)N1CCN(c2ccc(NC(=S)NC(=O)c3ccco3)cc2)CC1`, the Potency was inconclusive [activator, partial curve]. In the case of `COc1ccc(OC)c(NC(=O)C2C3CCC(C3=C(C)C)C2C(=O)O)c1` (stereo unspecified), the Potency is reported as active: 15.8 µM. With `Cn1c(C(=O)NCCc2ccsc2)cc2c(=O)n(C)c3ccccc3c21` the Potency was inconclusive [activator, partial curve].
